Measurements taken from publication PMC4336329 (PLoS ONE, 2015).
The whole screen tested about 310,000 compounds, of which about 2,200 (0.71%) showed an effect of 50% or more. The effect is printed as a negative number. This is one part of the list.

These compounds were tested against human ether-à-go-go-related gene (hERG) potassium channel (human, UniProt Q12809) (assay: primary screen, population patch clamp on CHO cells stably expressing hERG).
Sequence of human ether-à-go-go-related gene (hERG) potassium channel (Q12809 whole entry, looked up): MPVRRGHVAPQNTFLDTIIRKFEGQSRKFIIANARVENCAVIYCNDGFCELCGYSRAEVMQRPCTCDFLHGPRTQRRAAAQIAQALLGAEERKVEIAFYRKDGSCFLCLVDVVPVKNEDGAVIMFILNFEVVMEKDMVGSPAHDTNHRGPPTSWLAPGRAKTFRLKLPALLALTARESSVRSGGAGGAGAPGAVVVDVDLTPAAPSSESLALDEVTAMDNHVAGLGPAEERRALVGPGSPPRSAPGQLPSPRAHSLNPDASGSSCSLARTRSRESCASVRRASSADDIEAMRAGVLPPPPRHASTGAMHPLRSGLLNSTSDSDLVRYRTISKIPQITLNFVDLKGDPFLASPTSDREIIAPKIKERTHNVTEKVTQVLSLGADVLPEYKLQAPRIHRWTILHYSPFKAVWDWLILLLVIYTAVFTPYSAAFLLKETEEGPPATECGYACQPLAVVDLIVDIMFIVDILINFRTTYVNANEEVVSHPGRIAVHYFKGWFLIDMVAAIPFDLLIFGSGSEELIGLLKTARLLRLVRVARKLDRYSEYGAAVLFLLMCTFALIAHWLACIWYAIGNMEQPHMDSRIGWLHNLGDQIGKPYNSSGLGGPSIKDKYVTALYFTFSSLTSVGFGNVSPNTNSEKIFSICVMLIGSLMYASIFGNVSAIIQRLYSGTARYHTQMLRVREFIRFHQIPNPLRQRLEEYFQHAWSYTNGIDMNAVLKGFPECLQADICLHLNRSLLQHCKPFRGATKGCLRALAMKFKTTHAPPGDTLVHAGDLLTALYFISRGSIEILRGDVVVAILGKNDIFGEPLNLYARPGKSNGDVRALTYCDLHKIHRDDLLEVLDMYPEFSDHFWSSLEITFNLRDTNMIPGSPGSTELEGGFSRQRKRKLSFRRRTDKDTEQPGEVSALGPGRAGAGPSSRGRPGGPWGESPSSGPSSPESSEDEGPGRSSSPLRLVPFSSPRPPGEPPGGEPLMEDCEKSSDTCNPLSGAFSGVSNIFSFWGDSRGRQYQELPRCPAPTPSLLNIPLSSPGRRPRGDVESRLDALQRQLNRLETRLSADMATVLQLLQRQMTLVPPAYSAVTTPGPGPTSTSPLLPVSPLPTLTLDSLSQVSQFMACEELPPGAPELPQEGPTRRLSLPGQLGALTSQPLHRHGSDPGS

Compound	hERG current change (%, negative = inhibition) at 1uM [%]
Cc1cc(C)cc(NC(=O)Cn2nnc(C(=O)NCc3ccc(F)cc3)c2N)c1	13.3
Fc1ccccc1NC(=S)N(CCN1CCCCCC1)Cc1cccs1	-2.49
COCC(C)NC(=O)CCSc1nc(-c2ccc(OC)cc2)cc(C(F)(F)F)n1 (centres unmarked)	9.5
CC(C)C1=Nc2cccc3cccc(c23)N1.Cl	9.04
COc1ccc(CNCc2ccncc2)cc1OC.Cl	12.7
Nc1ccc(C(=O)OCc2csc(-c3ccccc3)n2)cc1[N+](=O)[O-]	15
COc1ccc(NS(=O)(=O)c2ccc(N3CCOCC3)c(N)c2)cc1	-0.916
Cc1ccc(NC(=O)C2CCCN(c3ncnc4c3nc3n4CCCCC3)C2)nc1 (centres unmarked)	-14.5
CC1(C)CC2(CCO1)OC(=O)CC2C(=O)Nc1c(Cl)cccc1Cl (centres unmarked)	8.72
O=C(CC1CCCCC1)N=C1SC2CS(=O)(=O)CC2N1c1ccccc1 (centres unmarked)	7.25
CN(CC(=O)Nc1ccccc1F)Cc1cccs1	18.1
CCOC(=O)Cc1csc(NC(=O)Nc2ccc(OC(F)(F)F)cc2)n1	17.3
CC(=Nc1ccc(C)cc1)c1sc2ccccc2c1O	11.9
CCC(C(=O)NC1CCCCC1)n1c(SCc2cccc(C)c2)nc2ccncc21 (centres unmarked)	7.82
Cc1ccc([C@@H]2CC=C(C(=O)O)[C@H](c3ccc(F)cc3)N2S(=O)(=O)c2ccc(C)cc2)cc1	12.6
COC(=O)C1=C(C)NC(C)=C(C(=O)OC)C1C(=O)OCc1nc2cc(C(=O)OC)ccc2c(=O)[nH]1	-5.17
COc1ccc(NC(=O)/C(=C\c2ccncc2)NC(=O)c2ccccc2)cc1	1.44
Cc1sc2ncn(CC(=O)NCCCC(=O)N3CCC4(CC3)OCCO4)c(=O)c2c1C	10.7
Cc1ccc(Cn2c(N3CCN(CCO)CC3)nc3c2c(=O)n(C)c(=O)n3C)cc1	7.9
O=c1nc(C(F)(F)F)nc2ccccn12	-2.42
O=C(c1ccccc1)N1CCN(S(=O)(=O)c2cccc(NS(=O)(=O)c3ccccc3)c2)CC1	12.4
Cc1ccc2c(c1)cc(CN(Cc1ccco1)C(=O)COc1ccccc1)c1nnnn12	10.3
CCOC(=O)c1c(Nc2ccc(Cl)cc2)sc(/C=C2\C=Nc3ccccc32)c1O	6.89
